Laboratory results as given in a compilation of properties of binary mixtures (doi:10.1007/s10953-016-0465-y).
Some of these densities may be calculated back from excess volumes.

Test: xn = mol fraction of the nth substance listed
Conditions: 101 kPa

COCCO + CCOS(=O)(=O)[O-].CC[n+]1ccn(C)c1
x2 = 0
Conditions | mass density [kg/m3]
298.15 K | 960.7
308.15 K | 951.7
318.15 K | 941.9
328.15 K | 932.6

CCOS(=O)(=O)[O-].CC[n+]1ccn(C)c1 + COCCO
mass density [kg/m3]
Conditions | 298.15 K | 308.15 K | 318.15 K | 328.15 K
x1 = 0.049 | 994.3 | – | 976.5 | 967.6
x1 = 0.0819 | 1013.9 | – | 996.6 | 988
x1 = 0.1453 | 1047 | 1038.7 | 1030.5 | –
x1 = 0.1765 | 1061 | 1052.8 | 1044.9 | 1036.8
x1 = 0.2557 | 1092.4 | – | 1076.9 | 1069.1
x1 = 0.3386 | – | 1112 | 1104.4 | –
x1 = 0.4472 | – | 1141 | 1133.5 | 1126.2
x1 = 0.5453 | 1169.5 | 1162.3 | 1155.1 | 1147.9
x1 = 0.6466 | 1188.2 | – | 1174 | 1167
x1 = 0.7562 | 1205.6 | – | 1191.7 | 1184.8
x1 = 0.8206 | 1214.7 | 1207.7 | 1201 | 1194.2
x1 = 0.8868 | – | 1216.5 | – | –
x1 = 0.951 | 1231.2 | 1224.3 | 1217.6 | 1210.9
x1 = 1 | 1236.4 | 1229.5 | – | 1216.2
